# Data from the supplement of paper PMC7826260.
# Some of the results follow. The data describe in vitro nicking of single-stranded DNA by Rep domains (3 µM enzyme, 1 h, 37 °C); shown is the middle of each 90-letter strand. Values are log2 of uncut reads against the no-enzyme pool; the lower, the more was cut; hits are not called. Reads are scaled to the total; where an enzyme cuts many sequences, the uncut ones exceed 0.
# Key:
# Experiment in all cases: uncleaved DNA left, log2 of reads against the no-enzyme library (log2 ratio); higher = less cleavage (more negative = more Rep cleavage of the k-mer); sequences stand for … in CTCGTCCG…ACCGGAGA
# [1] = system: T1, Rep nickase domain of Muscovy duck circovirus
# T1 sequence (protein, residues 1-111, tag omitted): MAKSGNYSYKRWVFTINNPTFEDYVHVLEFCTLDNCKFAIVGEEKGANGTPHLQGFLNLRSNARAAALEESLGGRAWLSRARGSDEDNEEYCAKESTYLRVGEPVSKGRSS
# Protocol: (§1)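 A pool of 90-nt single-stranded DNAs with seven random bases just before the constant AC of the nick site (name = the seven bases) was cut by 3 µM recombinant His6-SUMO-tagged Rep nickase domain (300 nM DNA, 50 mM HEPES pH 8.0, 50 mM NaCl, 1 mM MnCl2, 1 h, 37 °C, three replicates). Uncut DNA was amplified and sequenced.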
# [2] = system: T2, Rep nickase domain of banana bunchy top virus
# T2 sequence (protein, residues 1-94, tag omitted): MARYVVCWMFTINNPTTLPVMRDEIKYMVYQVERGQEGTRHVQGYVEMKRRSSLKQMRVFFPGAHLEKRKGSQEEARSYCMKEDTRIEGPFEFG
# Protocol: as §1
# [3] = system: T3, Rep nickase domain of cabbage leaf curl virus
# T3 sequence (protein, residues 1-116, tag omitted): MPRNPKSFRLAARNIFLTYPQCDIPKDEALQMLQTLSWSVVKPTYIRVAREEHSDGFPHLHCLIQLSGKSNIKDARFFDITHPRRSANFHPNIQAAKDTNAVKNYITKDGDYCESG
# Protocol: as §1
# [4] = system: T4, Rep nickase domain of chickpea chlorotic dwarf virus
# T4 sequence (protein, residues 1-124, tag omitted): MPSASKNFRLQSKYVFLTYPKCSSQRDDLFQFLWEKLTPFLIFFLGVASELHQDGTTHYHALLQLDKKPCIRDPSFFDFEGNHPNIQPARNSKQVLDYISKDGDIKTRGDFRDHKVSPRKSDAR
# Protocol: as §1
# [5] = system: T5, Rep nickase domain of faba bean necrotic yellows virus
# T5 sequence (protein, residues 1-98, tag omitted): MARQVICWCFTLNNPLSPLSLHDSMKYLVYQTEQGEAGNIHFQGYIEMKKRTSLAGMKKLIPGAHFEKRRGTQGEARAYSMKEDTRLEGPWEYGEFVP
# Protocol: as §1
# [6] = system: T6, Rep nickase domain of maize striate mosaic virus
# T6 sequence (protein, residues 1-117, tag omitted): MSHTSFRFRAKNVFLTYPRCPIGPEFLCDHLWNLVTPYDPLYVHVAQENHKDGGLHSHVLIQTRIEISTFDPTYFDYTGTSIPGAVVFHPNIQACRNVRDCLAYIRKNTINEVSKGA
# Protocol: as §1
# [7] = system: T7, Rep nickase domain of porcine circovirus 2
# T7 sequence (protein, residues 2-116, tag omitted): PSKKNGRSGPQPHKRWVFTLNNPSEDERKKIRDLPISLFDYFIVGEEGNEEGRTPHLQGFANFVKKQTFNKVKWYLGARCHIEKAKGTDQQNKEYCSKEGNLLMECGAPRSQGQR
# Protocol: as §1
# [8] = system: T8, Rep nickase domain of tomato golden mosaic virus
# T8 sequence (protein, residues 1-124, tag omitted): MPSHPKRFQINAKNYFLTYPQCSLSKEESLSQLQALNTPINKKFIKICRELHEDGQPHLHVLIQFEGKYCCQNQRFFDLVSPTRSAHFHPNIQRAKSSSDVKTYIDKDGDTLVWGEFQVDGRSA
# Protocol: as §1
# [9] = system: T9, Rep nickase domain of tomato yellow leaf curl virus
# T9 sequence (protein, residues 1-136, tag omitted): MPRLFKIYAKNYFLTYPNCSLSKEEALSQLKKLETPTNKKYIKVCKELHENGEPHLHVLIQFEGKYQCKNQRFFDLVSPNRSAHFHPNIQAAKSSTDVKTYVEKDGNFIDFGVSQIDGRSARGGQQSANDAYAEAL
# Protocol: as §1
# [10] = system: T10, Rep nickase domain of wheat dwarf virus
# T10 sequence (protein, residues 1-137, tag omitted): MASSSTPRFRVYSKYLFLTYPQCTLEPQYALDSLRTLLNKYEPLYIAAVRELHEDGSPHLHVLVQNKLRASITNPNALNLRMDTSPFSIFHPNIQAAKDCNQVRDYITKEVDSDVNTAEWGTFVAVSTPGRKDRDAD
# Protocol: as §1
Sequence,uncleaved DNA left (log2) [1],uncleaved DNA left (log2) [2],uncleaved DNA left (log2) [3],uncleaved DNA left (log2) [4],uncleaved DNA left (log2) [5],uncleaved DNA left (log2) [6],uncleaved DNA left (log2) [7],uncleaved DNA left (log2) [8],uncleaved DNA left (log2) [9],uncleaved DNA left (log2) [10]
GTCGACG,0.0116,0.0471,0.025,0.341,-0.00232,0.801,0.0426,0.192,0.0632,0.0239
GTATTGG,-0.0281,-0.0272,-0.217,-0.216,0.0552,-0.758,3.67e-05,-0.0423,0.00306,-0.0454
CACTTCG,0.0132,0.00519,-0.887,0.226,0.00529,-0.744,0.0641,-0.136,0.036,-0.11
ATCCCTC,-0.0928,-0.0541,-0.000655,-0.117,-0.0862,-0.327,-0.129,-0.0633,-0.0812,-0.154
ATGTAAT,-1.29,-0.812,-0.0299,-0.531,-0.899,0.142,-3.44,-0.0178,-0.0424,-0.058
GGACACA,-0.00147,0.0504,0.82,1.75,-0.0846,2.2,0.102,0.00804,-0.0924,0.237
GCCTTAC,0.0587,-0.0498,-0.051,-0.593,-0.0881,0.193,0.0125,0.0714,-0.155,0.0211
GGTCACA,-0.0121,0.104,0.614,1.27,0.000409,1.96,0.179,-0.0121,0.19,0.147
GCTGCGG,-0.154,-0.219,-0.451,-0.46,-0.156,-0.577,-0.0723,-0.162,-0.241,-0.197
TAGACTC,0.113,0.00566,0.0402,0.367,0.0475,0.992,-0.511,-0.0638,0.0111,0.0683
TTCCATC,-0.0862,0.0692,0.257,-0.0124,-0.0273,-0.517,-0.096,-0.117,0.00163,0.0661
CTACAGG,-0.1,0.0705,0.142,0.613,0.0256,0.355,0.0589,0.0753,-0.0499,-0.0706
TCCTACG,-0.0607,-0.191,-0.993,-1.06,-0.0852,-1.16,-0.0019,-0.131,-0.197,-0.149
CAAGCGC,0.0634,0.038,-0.641,-0.384,0.0283,-0.866,0.154,0.0771,0.107,0.0385
AGAGCGA,0.00283,-0.0388,-0.295,-0.232,-0.0414,-0.876,-0.118,-0.0126,-0.057,-0.164
CACCAGT,-0.181,-0.0785,-0.541,-1.93,0.0376,-1.05,-0.581,-0.0772,-0.0775,-0.119
CCGATCA,-0.101,-0.0842,0.229,-0.0385,-0.141,0.19,-0.148,0.0742,-0.0403,-0.0458
GAGCATA,0.0568,0.0423,0.21,0.526,-0.0366,1.38,-0.601,-0.0881,0.012,0.106
TCGAACC,-0.0767,-0.0548,0.0444,-0.537,-0.0476,-0.542,-0.264,-0.0456,-0.01,0.00473
CTAGGCC,-0.0791,-0.0527,0.105,0.334,-0.108,-0.238,-0.11,0.0202,-0.138,0.0339

Sequence,uncleaved DNA left (log2) [1],uncleaved DNA left (log2) [2],uncleaved DNA left (log2) [3],uncleaved DNA left (log2) [4],uncleaved DNA left (log2) [5],uncleaved DNA left (log2) [6],uncleaved DNA left (log2) [7],uncleaved DNA left (log2) [8],uncleaved DNA left (log2) [9],uncleaved DNA left (log2) [10]
GCCACCG,-0.0883,-0.062,-0.777,-0.596,-0.147,-0.841,0.0234,-0.0849,-0.166,-0.203
GGGCACA,-0.0338,0.172,0.863,1.93,-0.0299,2.26,0.286,0.0746,0.0909,0.0214
TCGGCCT,-0.0491,-0.0619,0.000148,-1.09,-0.136,-0.136,-0.322,-0.161,-0.139,-0.147
TACCGGG,-0.0523,-0.0757,0.263,0.384,-0.0969,0.393,0.0982,-0.0258,-0.0159,0.0612
GCTCAGG,0.0994,-0.0474,0.285,1.02,-0.0227,0.786,0.0602,0.0113,-0.149,-0.0429
TCATGAT,-0.15,0.0288,-0.667,-1.53,0.0103,1.32,-0.695,0.00313,-0.147,0.0309
CTGTGAC,-0.0329,-0.013,0.154,0.187,0.0268,-0.247,0.103,-0.0494,-0.0402,-0.128
CATTATC,-0.0431,-0.328,0.00867,-0.386,-0.148,-0.809,-0.638,-0.105,0.0345,0.0722
TTGAGGC,0.0561,-0.072,0.059,0.0989,-0.0482,-0.475,0.0408,-0.0892,-0.048,-0.0331
TTGCCTC,-0.205,-0.228,-0.265,-0.636,-0.0497,-0.831,-1.48,-0.152,-0.0189,-0.154
GCCTAAC,0.058,-0.0585,-0.208,-0.407,0.0245,0.0591,-0.0484,-0.0752,-0.00485,0.00709
GAGGGCG,-0.00891,0.0499,-0.717,-0.118,0.0493,-0.62,0.155,0.0381,0.0501,-0.16
GGGCGGA,-0.0175,0.00551,0.645,1.7,-0.101,2.02,0.0562,-0.0181,-0.0769,-0.0152
CCTAACA,0.000581,-0.1,-0.427,-2.39,-0.0792,-0.852,-0.078,-0.0337,0.0281,-0.0721
GGTGGGC,0.0891,0.0203,0.684,1.42,-0.0269,1.89,0.166,-0.0342,0.0919,0.0147
GGTCTGT,0.0116,0.0614,0.502,1.08,0.00578,1.63,0.0112,-0.0522,0.0202,0.072
GGCCAGC,0.0162,0.125,0.613,1.42,0.0558,1.86,0.178,0.0742,0.126,0.0598
CGGCCTT,-0.157,-0.106,0.0279,-0.402,0.0201,0.588,-0.205,-0.167,-0.144,-0.0128
ATGTTGG,0.0541,-0.0123,-0.371,-0.268,0.0678,-0.969,0.244,0.102,0.119,-0.0434
TATACAT,0.0283,-0.13,0.253,-0.0209,0.0788,0.898,-0.363,0.00383,0.0888,0.0964

Sequence,uncleaved DNA left (log2) [1],uncleaved DNA left (log2) [2],uncleaved DNA left (log2) [3],uncleaved DNA left (log2) [4],uncleaved DNA left (log2) [5],uncleaved DNA left (log2) [6],uncleaved DNA left (log2) [7],uncleaved DNA left (log2) [8],uncleaved DNA left (log2) [9],uncleaved DNA left (log2) [10]
CGGTGAC,-0.0233,0.0685,0.676,1.54,-0.019,1.85,0.231,-0.104,0.0883,0.0659
GTCGTGG,-0.0693,-0.0267,0.249,0.716,-0.073,1.39,0.00516,0.0179,-0.00629,-0.149
CAATATA,-0.326,-0.0655,-1.51,-2.74,-0.0438,-1.01,-1.38,-0.198,-0.111,-0.42
TCGATAG,0.0971,-0.0122,-0.164,-0.016,0.0259,-0.619,0.236,0.108,0.0307,-0.0193
TTATGAT,-1.37,0.00811,-2.62,-2.62,0.0657,0.564,-1.92,-0.426,0.0181,-0.295
CGGGCGC,-0.0952,0.0308,-0.102,0.0551,0.036,-0.0192,0.127,0.0626,-0.0434,0.0057
TACAGAT,0.105,-0.0403,-0.0669,-0.26,0.103,0.991,-0.234,0.0126,-0.0641,0.0877
CGTCGGG,-0.0919,-0.226,-0.306,-0.0796,-0.0966,-0.494,-0.0716,-0.159,-0.222,-0.0629
GACGCCG,-0.0852,0.0111,-0.6,-0.45,-0.00118,-0.924,0.181,0.0803,0.00427,-0.0537
TAGCATC,-0.0116,-0.0038,-0.117,-0.448,-0.0248,-0.434,-0.38,-0.163,0.019,0.0413
AAGTGCT,-0.572,-1.41,-0.484,-1.06,-1.19,-0.684,-3.98,-0.0936,-0.011,0.00841
CGCTACA,-0.0497,-0.0722,-0.307,-2.06,-0.0272,-0.388,-0.0908,-0.0553,0.124,-0.15
TTCCAAG,0.00597,-0.0801,-0.799,-0.617,-0.0553,-1.08,0.0603,-0.137,0.00514,-0.0102
GAGTACG,-0.0232,-0.0453,-0.546,-0.367,0.0644,-0.785,-0.069,-0.169,-0.0367,-0.13
AAACCCC,-0.147,-0.00532,0.186,-0.256,-0.0204,0.0198,-0.693,-0.0788,0.0261,0.0383
TCTGGTA,0.0429,-0.065,0.149,-0.0683,0.0579,0.496,0.0142,0.0513,0.0166,0.0441
ATCAAGC,0.0936,0.0867,-0.0338,-0.0617,0.0466,-0.846,0.166,0.103,0.00391,0.104
CGTTAGA,0.0744,-0.0203,-0.121,-0.176,-0.0828,-0.742,0.0399,-0.0529,0.0539,-0.0505
TTCTGCG,0.0567,0.0686,-0.271,1.06,0.0526,0.306,0.231,-0.0364,-0.198,-0.15
GTCTTAG,-0.163,0.0619,0.141,0.613,-0.0833,1.23,-0.0878,0.0569,-0.0429,0.0354
